Source: the supplement of paper PMC12067230
Single values of this set are uncertain.
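Note: [psi-pin-] Saccharomyces cerevisiae expressing SupN fusions, induced by 100 µM Cu2SO4, selected 7 d at 30 °C without adenine and uracil, scored by deep sequencing of output versus input.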

Assay: amyloid nucleation score relative to library mode (yeast Sup35 reporter selection) (log enrichment difference); higher = more amyloid nucleation; sequences are the first 22 residues of the Bri2 peptide extended by up to 12 random residues
Settings: random library (experiment): 1;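 active = nucleation score significantly above 0 at FDR 0.05; inactive = not significantly above 0 or absent from output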
EASNCFAIRHFENKFAVETLICYSFNYAYRLVGC showed an amyloid nucleation score of 2.53. With EASNCFAIRHFENKFAVETLICGKFEMMVKNVTE the amyloid nucleation score was -0.708. EASNCFAIRHFENKFAVETLICCYHDLPGMRMFS gave an amyloid nucleation score of 3.24. For EASNCFAIRHFENKFAVETLICAEMWSSLWHRVA, the amyloid nucleation score was “inactive”. Sequence EASNCFAIRHFENKFAVETLICITLIPCEEAPIR has an amyloid nucleation score of 0.542. Work on EASNCFAIRHFENKFAVETLICTLGYGSGQSCER yielded an amyloid nucleation score of 2.81. EASNCFAIRHFENKFAVETLICQREVESRVMGEA showed an amyloid nucleation score of -0.111. For EASNCFAIRHFENKFAVETLICLMT, the amyloid nucleation score was 0.726. For EASNCFAIRHFENKFAVETLICHAHWVTASGLLG, the amyloid nucleation score was “inactive”. In the case of EASNCFAIRHFENKFAVETLICLPDVNLVLLKP, the amyloid nucleation score is reported as “inactive”. For EASNCFAIRHFENKFAVETLICCLRTAWVTVAHR, the amyloid nucleation score was 7.1. In the case of EASNCFAIRHFENKFAVETLICRKTSTGCMMQGY, the amyloid nucleation score is reported as “inactive”. With EASNCFAIRHFENKFAVETLICEMVTAFRRCETL the amyloid nucleation score was “inactive”. In the case of EASNCFAIRHFENKFAVETLICLATWGWRGARRR, the amyloid nucleation score is reported as “inactive”. With EASNCFAIRHFENKFAVETLICNSTRPTQPIPLA the amyloid nucleation score was “inactive”. In the case of EASNCFAIRHFENKFAVETLICPQCTMLYLVRSY, the amyloid nucleation score is reported as “inactive”. For EASNCFAIRHFENKFAVETLICWSSGVVGPQTVA, the amyloid nucleation score was “inactive”. For EASNCFAIRHFENKFAVETLICKLCTWRLRVMGS, the amyloid nucleation score was “inactive”. For EASNCFAIRHFENKFAVETLICHVA, the amyloid nucleation score was “inactive”. For EASNCFAIRHFENKFAVETLICLRGRAGLTCLGS, the amyloid nucleation score was “inactive”. EASNCFAIRHFENKFAVETLICAIVSERVHAMVQ gave an amyloid nucleation score of 1.22. In the case of EASNCFAIRHFENKFAVETLICTVLTCPD, the amyloid nucleation score is reported as “inactive”. For EASNCFAIRHFENKFAVETLICVKGLVSYSGLLV, the amyloid nucleation score was “inactive”. With EASNCFAIRHFENKFAVETLICWRSVGRCTWAEQ the amyloid nucleation score was “inactive”. In the case of EASNCFAIRHFENKFAVETLICGRWELGVEVYGL, the amyloid nucleation score is reported as -0.029. With EASNCFAIRHFENKFAVETLICMSVCWQALVGVT the amyloid nucleation score was “inactive”. For EASNCFAIRHFENKFAVETLICAW, the amyloid nucleation score was “inactive”. In the case of EASNCFAIRHFENKFAVETLICHLLSS, the amyloid nucleation score is reported as “inactive”. Work on EASNCFAIRHFENKFAVETLICFDLMHWQGTVRR yielded an amyloid nucleation score of 4.91. In the case of EASNCFAIRHFENKFAVETLICFNVFISHSTMVS, the amyloid nucleation score is reported as “inactive”. For EASNCFAIRHFENKFAVETLICENCTTSWPRSWG, the amyloid nucleation score was 2.61. For EASNCFAIRHFENKFAVETLICGCAELLSGAVAF, the amyloid nucleation score was “inactive”. Sequence EASNCFAIRHFENKFAVETLICLMQGDKNRVSLE has an amyloid nucleation score of 6.74. In the case of EASNCFAIRHFENKFAVETLICCPPCQYRRALS, the amyloid nucleation score is reported as “inactive”. Sequence EASNCFAIRHFENKFAVETLICYRISDNQVKGSW has an amyloid nucleation score of 3.12. For EASNCFAIRHFENKFAVETLICCRTVVWRMQVVR, the amyloid nucleation score was “inactive”. With EASNCFAIRHFENKFAVETLICGQHGEGEARQER the amyloid nucleation score was “inactive”. With EASNCFAIRHFENKFAVETLICKMQMSTIQVREL the amyloid nucleation score was “inactive”. In the case of EASNCFAIRHFENKFAVETLICMNGQRYLFNWRT, the amyloid nucleation score is reported as “inactive”. EASNCFAIRHFENKFAVETLICVNAVPWCSAWGR gave an amyloid nucleation score of 8.17. For EASNCFAIRHFENKFAVETLICTKVGTAKRGTLN, the amyloid nucleation score was 4.99. EASNCFAIRHFENKFAVETLICRLLQGLSLKRCW showed an amyloid nucleation score of 4.11. EASNCFAIRHFENKFAVETLICGSTLCLS gave an amyloid nucleation score of 5.63. With EASNCFAIRHFENKFAVETLICNP the amyloid nucleation score was “inactive”. For EASNCFAIRHFENKFAVETLICKDRVCSLRHVVR, the amyloid nucleation score was “inactive”. For EASNCFAIRHFENKFAVETLICVPLLR, the amyloid nucleation score was “inactive”. For EASNCFAIRHFENKFAVETLICCPFNPTLPFPLG, the amyloid nucleation score was 7.57. For EASNCFAIRHFENKFAVETLICGLPGMLCGSLRT, the amyloid nucleation score was 6.44. For EASNCFAIRHFENKFAVETLICDQRRLRPGGPGL, the amyloid nucleation score was “inactive”. EASNCFAIRHFENKFAVETLICPWFDGKASCRCT gave an amyloid nucleation score of 6.02. With EASNCFAIRHFENKFAVETLICCLLWFVTTPHRN the amyloid nucleation score was “inactive”.

Same assay, conditions: random library (experiment): 2
In the case of EASNCFAIRHFENKFAVETLICTDSSLNFHAWKY, the amyloid nucleation score is reported as 7.38. With EASNCFAIRHFENKFAVETLICWIEKFLYVTRHA the amyloid nucleation score was “inactive”. With EASNCFAIRHFENKFAVETLICYYASVTRLGRFC the amyloid nucleation score was “inactive”. For EASNCFAIRHFENKFAVETLICGMLVWCGIWRFL, the amyloid nucleation score was “inactive”. Work on EASNCFAIRHFENKFAVETLICCLGS yielded an amyloid nucleation score of 3.45. With EASNCFAIRHFENKFAVETLICRCTFTLLRVFWV the amyloid nucleation score was “inactive”. In the case of EASNCFAIRHFENKFAVETLICHWAQCWRYAARR, the amyloid nucleation score is reported as “inactive”. With EASNCFAIRHFENKFAVETLICLIVSFRSRCYIV the amyloid nucleation score was “inactive”. For EASNCFAIRHFENKFAVETLICFGLLYRHFFLAS, the amyloid nucleation score was “inactive”. In the case of EASNCFAIRHFENKFAVETLICNGYCTLVWFVVE, the amyloid nucleation score is reported as “inactive”. For EASNCFAIRHFENKFAVETLICFMRV, the amyloid nucleation score was “inactive”. Work on EASNCFAIRHFENKFAVETLICGGEAI yielded an amyloid nucleation score of -0.148. In the case of EASNCFAIRHFENKFAVETLICFRLYSRR, the amyloid nucleation score is reported as 2.02. With EASNCFAIRHFENKFAVETLICFGAGQTACGHAW the amyloid nucleation score was 6.5. For EASNCFAIRHFENKFAVETLICLVPAWNTVAVRR, the amyloid nucleation score was “inactive”. Sequence EASNCFAIRHFENKFAVETLICYVFNSNAYCAYL has an amyloid nucleation score of 3.14. For EASNCFAIRHFENKFAVETLICGTGDRLKYRDKD, the amyloid nucleation score was “inactive”. In the case of EASNCFAIRHFENKFAVETLICLYTSYAFNQHSV, the amyloid nucleation score is reported as “inactive”. Work on EASNCFAIRHFENKFAVETLICFAVSAHMRDCAS yielded an amyloid nucleation score of 0.505. EASNCFAIRHFENKFAVETLICHFTNLRWCFFVG gave an amyloid nucleation score of 3.42. In the case of EASNCFAIRHFENKFAVETLICVITIV, the amyloid nucleation score is reported as “inactive”. For EASNCFAIRHFENKFAVETLICTSLHLCIYVRCL, the amyloid nucleation score was “inactive”. With EASNCFAIRHFENKFAVETLICVGMFLTSGMILA the amyloid nucleation score was “inactive”. In the case of EASNCFAIRHFENKFAVETLICPGNP, the amyloid nucleation score is reported as “inactive”. In the case of EASNCFAIRHFENKFAVETLICYIIKACHSIQPD, the amyloid nucleation score is reported as “inactive”. In the case of EASNCFAIRHFENKFAVETLICANETATRGAPGD, the amyloid nucleation score is reported as -0.0392. For EASNCFAIRHFENKFAVETLICTPLMYGIAVWYG, the amyloid nucleation score was “inactive”. EASNCFAIRHFENKFAVETLICVFNVYI showed an amyloid nucleation score of 7.95. In the case of EASNCFAIRHFENKFAVETLICIKKVWDHGVVTG, the amyloid nucleation score is reported as “inactive”. For EASNCFAIRHFENKFAVETLICPYVFTPCLWVCN, the amyloid nucleation score was 2.72. With EASNCFAIRHFENKFAVETLICNMKSR the amyloid nucleation score was “inactive”. In the case of EASNCFAIRHFENKFAVETLICLVMLLRFDMTSC, the amyloid nucleation score is reported as “inactive”. For EASNCFAIRHFENKFAVETLICLYIVLRRYVVVL, the amyloid nucleation score was “inactive”.

Same assay, conditions: random library (experiment): 3
EASNCFAIRHFENKFAVETLICYVGCMRNFAPWF showed an amyloid nucleation score of 3.53. With EASNCFAIRHFENKFAVETLICANTSWWNMKVVG the amyloid nucleation score was “inactive”. In the case of EASNCFAIRHFENKFAVETLICLLEVNVWAGGDE, the amyloid nucleation score is reported as 7.35. With EASNCFAIRHFENKFAVETLICHGCGKRKARRWR the amyloid nucleation score was 4.88. Sequence EASNCFAIRHFENKFAVETLICWPLAACKVARTM has an amyloid nucleation score of 5.97. EASNCFAIRHFENKFAVETLICGVVGGVRWSAGG gave an amyloid nucleation score of 2.64. With EASNCFAIRHFENKFAVETLICGSRRDKRKGSRC the amyloid nucleation score was “inactive”. With EASNCFAIRHFENKFAVETLICMDEVAGRTGLPP the amyloid nucleation score was “inactive”. With EASNCFAIRHFENKFAVETLICCSVVAWITCG the amyloid nucleation score was 8.07. For EASNCFAIRHFENKFAVETLICQTDHTFVAMLA, the amyloid nucleation score was “inactive”. For EASNCFAIRHFENKFAVETLICVVKTFAGLPRPW, the amyloid nucleation score was “inactive”. EASNCFAIRHFENKFAVETLICLTNSSKHHFLPG gave an amyloid nucleation score of 3.56. For EASNCFAIRHFENKFAVETLICDLYNDLKQTNTL, the amyloid nucleation score was “inactive”. In the case of EASNCFAIRHFENKFAVETLICRWQAVCVGIMQP, the amyloid nucleation score is reported as “inactive”. For EASNCFAIRHFENKFAVETLICTWVCGARGTDGR, the amyloid nucleation score was 6.65. In the case of EASNCFAIRHFENKFAVETLICVGTDLGYDTLYS, the amyloid nucleation score is reported as “inactive”. With EASNCFAIRHFENKFAVETLICFDIKRSLLISSR the amyloid nucleation score was “inactive”. Sequence EASNCFAIRHFENKFAVETLICGSHSSGRLGQPR has an amyloid nucleation score of 3.44. With EASNCFAIRHFENKFAVETLICRPKMHFGIVSV the amyloid nucleation score was “inactive”. For EASNCFAIRHFENKFAVETLICLVAMNEQWRAQL, the amyloid nucleation score was 4.53. In the case of EASNCFAIRHFENKFAVETLICLKS, the amyloid nucleation score is reported as “inactive”. With EASNCFAIRHFENKFAVETLICLTSEFYVYVRVS the amyloid nucleation score was “inactive”. With EASNCFAIRHFENKFAVETLICPRARRLGWLNVE the amyloid nucleation score was “inactive”. With EASNCFAIRHFENKFAVETLICRVVLMLM the amyloid nucleation score was “inactive”. EASNCFAIRHFENKFAVETLICVLTCNIEGGRRA gave an amyloid nucleation score of 6.17. With EASNCFAIRHFENKFAVETLICRLSTSIYSSRSW the amyloid nucleation score was “inactive”. EASNCFAIRHFENKFAVETLICCNSVLRFNFLR showed an amyloid nucleation score of 4.49. For EASNCFAIRHFENKFAVETLICGIIYWRPCQQVL, the amyloid nucleation score was “inactive”. For EASNCFAIRHFENKFAVETLICFTFRPWEPRCGS, the amyloid nucleation score was 5.02. For EASNCFAIRHFENKFAVETLICDYLLRRNWFFR, the amyloid nucleation score was “inactive”. For EASNCFAIRHFENKFAVETLICRLSPRVGSSMYG, the amyloid nucleation score was “inactive”. With EASNCFAIRHFENKFAVETLICVTVYGCDWNRFR the amyloid nucleation score was “inactive”. For EASNCFAIRHFENKFAVETLICVTPDVPQQRRVT, the amyloid nucleation score was 3.07. EASNCFAIRHFENKFAVETLICRFD showed an amyloid nucleation score of 1.02. EASNCFAIRHFENKFAVETLICGTLCFVRGWSTG gave an amyloid nucleation score of 4.54.
